Structures are written as SMILES. Values joined by “and” are separate entries in the source; they are usually repeats but may differ in a detail not shown here. Identical values can stand only once. The whole screen tested about 48,000 compounds, of which about 1,200 (2.5%) were called active. About 2% were inconclusive and are not listed.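 How the source made its calls: active means activation of at least 60% and not above a set upper limit (about 1 call in 100 departs from these limits); inconclusive means activation of 40% to 60%, or above that upper limit; inactive means activation under 40%.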 The list shows a part of the results.

In this assay the target is Probable G-protein coupled receptor 32 (Homo sapiens) (UniProt O75388). The experiment in a line: qHTS for Agonists of Human Resolvin D1 Receptor DRV1. Further: 0% is about no effect. Particulars: CHO-K1 GPR32 beta-arrestin PathHunter luminescence, 90 min; at 76.9 µM; hits give high values; zero percent set by DMSO-only wells. The method, boiled down: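 Luminescent readout of beta-Gal complementation quantifies ligand-induced beta-arrestin association with GPR32 in CHO-K1 cells; 90 min compound incubation at 37 °C, detection 1 h at room temperature.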
UniProt O75388, sequence (O75388 whole entry, looked up): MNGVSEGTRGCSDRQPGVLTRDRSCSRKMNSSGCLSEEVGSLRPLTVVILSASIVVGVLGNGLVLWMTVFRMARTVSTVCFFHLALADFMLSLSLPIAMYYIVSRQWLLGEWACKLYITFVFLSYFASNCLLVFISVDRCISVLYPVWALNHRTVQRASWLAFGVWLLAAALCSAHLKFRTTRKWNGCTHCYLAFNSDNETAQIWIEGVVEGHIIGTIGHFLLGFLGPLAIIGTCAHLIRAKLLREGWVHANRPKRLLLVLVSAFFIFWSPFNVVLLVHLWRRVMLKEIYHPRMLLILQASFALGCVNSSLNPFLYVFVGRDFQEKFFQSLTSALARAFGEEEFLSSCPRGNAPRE
A general note: qHTS replaces the single test concentration by a dilution series.
On to `O=C(NCCc1csc(-c2cccc(F)c2)n1)c1ccc(Br)o1`, for which the activation is active: 93.8%.
Take `Cc1ccc(-n2nnnc2C2CCN(S(=O)(=O)c3ccc(OC(F)(F)F)cc3)CC2)cc1`: the activation is inactive: -2.98%.
In the case of `CCN(C(=O)Cn1c(=O)oc2cc(S(=O)(=O)N3CCCC3)ccc21)c1cccc(C)c1` it was inactive: -2.99%; in that of `CCOc1ccccc1CNC(=O)CCc1cn(Cc2ccc(Cl)cc2)c2ccccc12`, inactive: -15.6%.
In the case of `COc1cccc(C(=O)Nc2cc3cc(OC)ccc3oc2=O)c1` it was inactive: -9.4%; in that of `Cc1cc(C)c2c(n1)SCCN2C(=O)Nc1ccc(C(=O)Nc2cc(Cl)ccc2C)cc1`, inactive: -18.1%.
Under `Cc1cc(C(=O)NCCc2ccc(Cl)cc2)c2c(C)nn(-c3cccc(F)c3)c2n1` stands inactive: -15.5%; under `COc1ccc(N(CC(=O)NCCc2cccc(C)c2)S(=O)(=O)c2c(C)noc2C)cc1`, inactive: -6.84%; under `COC(=O)c1cc2sc(Cl)cc2n1Cc1nc(-c2ccc(OC)cc2)oc1C`, inactive: -10.2%.
Regarding `Cc1ccc(Cl)cc1NC(=O)COCc1cc(-c2ccco2)on1`, the activation was inactive: -23.3%.
In the case of `CCCCSCCCNC(=O)CN1C(=O)COc2ccc(S(=O)(=O)N3CCC(C)CC3)cc21` it was inactive: -0.192%; in that of `O=C(Nc1nnc(S(=O)(=O)N2CCN(c3ccc(F)cc3)CC2)s1)c1ccc(Cl)cc1`, inactive: -0.647%.
In the case of `COc1ccc(C)cc1NC(=O)C(=O)NCC1(c2ccccc2)CCCC1` it was inactive: -16.5%; in that of `CC(C)(C)c1ccc(C2NC(=O)c3n[nH]c(-c4cccs4)c32)cc1` (stereo not drawn), inactive: -11.3%.
In the case of `Cc1ccc(C(=O)Nc2ccc(C(=O)OCc3cc(=O)n4ccsc4n3)cc2)cc1` it was inactive: -9.87%.
As for `CCN(CC)S(=O)(=O)c1ccc2c(c1)N(CC(=O)N(C)Cc1ccccc1)C(=O)CO2`, the activation is inactive: -14.4%.
In the case of `Cc1ccc(Cn2cc(CCC(=O)NCc3ccccc3F)c3ccccc32)cc1` it was inactive: -13.2%; in that of `COC(=O)c1ccc(NC(=O)Cn2nc(C(=O)Nc3ccc(C)cc3)ccc2=O)cc1`, inactive: -8.64%; in that of `COc1ccccc1N1CCN(c2ncnc3c2nc2n3CCCC2)CC1`, active: 63.5%.
Under `Cc1ccc(NC(=O)Cn2c(CCC(=O)O)ccc2-c2ccc(Cl)cc2)cc1` stands inactive: -28.1%; under `COc1ccc(-c2[nH]c3c(c2-c2c(-n4cccc4)n(C)c(=O)n(C)c2=O)c(=O)n(C)c(=O)n3C)cc1`, inactive: 3.98%.
On to `O=C(CNC(=O)c1ccc(Cl)cc1)OCc1cc(=O)n2ccsc2n1`, for which the activation is inactive: 0.499%.
Under `CCC1CN(C(=O)N2CCC(C(=O)NCCC3=CCCCC3)CC2)c2cc(C)ccc2O1` (stereo not drawn) stands inactive: -21.7%; under `Cc1cccc(OCC(=O)Nc2ccc(-c3nc4cc(C)ccc4o3)c(O)c2)c1`, inactive: -5.87%; under `Cc1ccc(OCC(=O)Nc2ccc(Cl)c(-c3nc4ccccc4[nH]3)c2)cc1C`, active: 70.6%.
As for `COc1ccc(S(=O)(=O)N(CC(=O)N(C)Cc2ccccc2)c2ccc(Cl)cc2)cc1`, the activation is inactive: -11.3%.
Under `CCn1cc2nc(SCc3ccc(C)cc3)n(CCc3ccccc3)c(=O)c2n1` stands inactive: -5.97%; under `COc1ccc(NC(=O)CSc2nnc(NC(=O)Nc3ccccc3)s2)c(OC)c1`, inactive: -6%.
Under `COc1cc(Cc2cnc(N)nc2N)cc(OC)c1OC` stands inactive: -3.5% and inactive: -3.9%; under `NC(=O)C(=O)O`, inactive: -6.62%; under `CCc1ccc(NC(=O)CSc2nc3ccccc3nc2Cc2ccccc2OC)cc1`, inactive: -21.6%.
Consider `CCOC(=O)c1ccc(NC(=O)c2c(NCc3sccc3C)sc3c2CCCCC3)cc1`, for which the activation is inactive: -16.5%.
With `CC(C)(C)c1ccc(C(=O)NC(Cc2c[nH]c3ccccc23)C(=O)OCC(=O)c2ccccc2)cc1` (stereo not drawn), the activation was inactive: -14%.
In the case of `O=C(NC1CCCCC1)c1c[nH]c2ccc(S(=O)(=O)Nc3ccccc3F)cc2c1=O` it was active: 101%; in that of `Cc1cc(C)cc(NC(=O)N2CCN3CCCCC3C2)c1` (stereo not drawn), inactive: -3.89%; in that of `CC1CCCN(c2cc3c(cc2F)c(=O)c(S(=O)(=O)c2cccc(Cl)c2)cn3C)C1` (stereo not drawn), inactive: -12.1%.
Under `COc1ccc(Cn2c(=O)[nH]c3cc(C(=O)N4CCN(c5cccc(OC)c5)CC4)ccc3c2=O)cc1` stands inactive: -1.16%; under `Cn1cc(C(=O)NCc2ccc(Cl)cc2)c(=O)c2cc(S(=O)(=O)N3CCCCCC3)ccc21`, inactive: 24.4%.
In the case of `COc1ccc(CC(=O)Nc2c(C(=O)Nc3ccc(F)cc3)oc3ccccc23)cc1OC` it was inactive: 0.375%.
Turning to `COc1ccc(OC)c(CCNC(=O)CN2C(=O)COc3ccc(S(=O)(=O)N4CCC(C)CC4)cc32)c1`, the activation is inactive: -2.3%.
In the case of `CCCCNc1nc(Oc2ccc(OCCC)nn2)nc(N(C)C)n1` it was inactive: 5.9%; in that of `COc1ccc(-c2nc3ccccc3o2)cc1NC(=O)CSc1ccc(Cl)cc1`, inactive: -6.92%.
Under `O=C(CCSCc1ccccc1F)N1CCN(c2ccc(Cl)cc2)CC1` stands inactive: -24.6%; under `Cc1nn(-c2ccc(N3CCCC3)nn2)c(C)c1CCC(=O)NCc1ccccc1F`, inactive: -8.34%; under `CCC1CCCCN1CCCNC(=O)c1c(O)nc2c(C)cccn2c1=O` (stereo not drawn), inactive: -3.04%.
Under `CCOc1ccccc1NC(=O)c1sc2nc(-c3ccc(OC)cc3)ccc2c1N` stands inactive: 1.75%; under `CCCN1CCN(CCNC(=O)Nc2cc(C)ccc2OC)CC1`, inactive: -2.49%; under `CCOC(=O)c1ccc(NC2=CC(c3ccc(O)c(OCC)c3)N(c3ccc(C(=O)OCC)cc3)C2=O)cc1` (stereo not drawn), inactive: 5.34%.
As for `COc1cc2c(C(=O)Nc3ccc(C)cc3Br)cn(C)c(=O)c2cc1OC`, the activation was inactive: 5.49%.
Under `COc1ccc(-n2c(/C=C/c3cccc4ccccc34)nc3ccccc3c2=O)cc1Cl` stands inactive: 0.242%.
Take `O=C(Cc1ccc(F)cc1)N1CCC(c2nc3c(nnn3Cc3ccc(F)cc3)c(=O)[nH]2)CC1`: the activation was inactive: -11.7%.
For `Cc1ccccc1C(=O)Nc1nnc(S(=O)(=O)N(C)Cc2ccc(Cl)cc2)s1`, the activation was inactive: 10.9%.
In the case of `Cc1ccc(CNC(=O)c2nc(-c3ccc(Cl)cc3)n3c2CCCCC3)cc1` it was inactive: -38.5%; in that of `N#Cc1ccccc1Cn1c(=O)n(CCCCC(=O)NCc2ccc3c(c2)OCO3)c(=O)c2ccccc21`, inactive: -6.01%.
In the case of `O=C(NCCSCc1ccccc1Cl)C1CCN(S(=O)(=O)Cc2ccccc2)CC1` it was inactive: 41.4%; in that of `COc1ccc(OCC(=O)Nc2ccc(O)c(-c3nc4ccccc4s3)c2)cc1`, inactive: 2.8%.
In the case of `Cc1ccc(CN(C(=O)COc2ccc(C(C)C)cc2)C2CCS(=O)(=O)C2)o1` (stereo not drawn) it was active: 61.2%.
On to `COc1ccc(CC(=O)N2CC(=O)Nc3ccc(Br)cc3C2c2ccc(F)cc2)cc1` (stereo not drawn), for which the activation was inactive: -21.1%.
Take `CCCn1c(=O)c2sccc2n2c(CCCC(=O)Nc3ccccc3OCC)nnc12`: the activation was inactive: 14%.
Under `COc1ccc(O)c(C2Nc3ccccc3-n3c(-c4ccccc4)c4c(=O)n(C)c(=O)n(C)c4c32)c1` (stereo not drawn) stands inactive: -2.65%; under `COc1cccc(CNC(=O)C(NS(=O)(=O)c2ccc3c(c2)oc(=O)n3C)C(C)C)c1` (stereo not drawn), inactive: 21.3%.
Under `Cc1cccc(NC(=O)CSc2nc(C3CCCC3)nc3c2c(=O)n(C)c(=O)n3C)c1C` stands inactive: 1.22%; under `Cc1nnsc1C(=O)Oc1ccc(C(C)C)cc1`, inactive: 6.15%; under `Cc1c(C(=O)OCC2CCCCC2)[nH]c2c1C(=O)CC(c1ccc(Cl)cc1)C2` (stereo not drawn), inactive: 0.958%.
On to `COc1ccc(S(=O)(=O)Nc2cccc(-c3ccc(N4CCCCCC4)nn3)c2)cc1`, for which the activation is inactive: 0.403%.
Under `COc1ccc2c(c1)-c1nc(NC(=O)c3ccccc3F)sc1CC2` stands inactive: -24.5%.
In the case of `CCN(CC)C(=O)c1sc2c(c1C)c(=O)n(-c1ccc(C)c(C)c1)c(=O)n2Cc1cc(=O)n2c(C)cccc2n1` it was inactive: -6.62%.
As for `COc1ccc(CNC(=O)CSc2ncc3c(n2)-c2cc(Cl)ccc2N(Cc2ccccc2)S3(=O)=O)cc1OC`, the activation was inactive: -5.47%.
In the case of `Cc1nnc(SCc2nc(-c3ccc(Cl)cc3)no2)n1-c1ccc(F)cc1` it was inactive: 6.98%.
Under `COc1ccccc1NC(=O)Cn1c(=O)n(CCc2ccccc2)c(=O)c2c3c(sc21)CN(C(C)=O)CC3` stands inactive: -6.47%; under `Cc1ccc(Cn2cc(/C=C(/C#N)C(=O)Nc3cccc(Cl)c3)c3ccccc32)cc1`, inactive: -3.35%; under `O=C(c1ccccc1)n1nc(-c2ccco2)nc1NCc1cccs1`, inactive: 18.1%.
Under `COc1cc2ccccc2cc1C(=O)Nc1cc(-c2nc3ccccc3o2)ccc1C` stands inactive: 8.19%; under `CCC(=O)OCc1cnc(C)c2oc(=O)c(C(=O)Nc3ccccc3C(F)(F)F)cc12`, inactive: -12.1%; under `Cc1ccc(S(=O)(=O)N2CCc3cc(C(=O)Nc4ccc(C)c(C)c4)ccc32)cc1`, inactive: 6.41%.
On to `O=c1cc(-c2ccccc2)nc2cc(-c3ccc(F)cc3)[nH]n12`, for which the activation is inactive: -1.45%.
Under `CCOC(=O)Cn1c(=O)n(CC2CCCO2)c2nc(-c3ccccc3)nc(C(N)=O)c21` (stereo not drawn) stands inactive: -0.143%.
In the case of `COc1ccc(C(=O)Nc2ccc(N(C)Cc3ccccc3)c(C(=O)O)c2)cc1` it was inactive: -15.6%; in that of `O=C(Nc1ccc(C(=O)O)c(O)c1)c1ccccc1`, inactive: 3.65%; in that of `CC(C)NC(=O)N1[C@H](c2cccs2)[C@@H](C)C(=O)[C@@H](C)[C@@H]1c1cccs1`, inactive: -12.1%.
In the case of `O=C(CN1CCCN(Cc2ccccc2F)S1(=O)=O)Nc1ccc(F)c(Cl)c1` it was inactive: 5.4%; in that of `Cc1cc(C)cc(NC(=O)N2CCC(CN3CCOCC3)CC2)c1`, inactive: -9.13%.
With `CCOC(=O)C1=C(CN2CCN(c3ccccc3OC)CC2)NC(=O)NC1c1ccccc1` (stereo not drawn), the activation was inactive: 18.1%.

The record behind these values is PubChem BioAssay AID1346428 (National Center for Advancing Translational Sciences (NCATS), 2018).
